# Measured values taken from the supplement of paper PMC4166925.
# ± gives the standard deviation of the averaged measurements. The full ranking holds about 33,000 sequences; the median of “E-score (dimensionless, -0.5 to 0.5)” is about -0.049, and the highest 2% start at about 0.37. This is one part of the list.
# Tested on: T1, PmTbr T-box DNA-binding domain (GST fusion)
# T1 sequence: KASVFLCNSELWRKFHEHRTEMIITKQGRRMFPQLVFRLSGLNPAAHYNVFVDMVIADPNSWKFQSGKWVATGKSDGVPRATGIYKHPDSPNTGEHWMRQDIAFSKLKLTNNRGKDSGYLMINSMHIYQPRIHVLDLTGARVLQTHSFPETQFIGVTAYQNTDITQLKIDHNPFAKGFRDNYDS
# Test: PBM E-score of 8-mer (E-score (dimensionless, -0.5 to 0.5)); Tbr is Tbrain of the sea star Patiria miniata (Pm) or the sea urchin Strongylocentrotus purpuratus (Sp); higher = stronger binding preference; most listed sequences are background and not binding sites
# Conditions: the construct has about 5 more residues each side
# Procedure, shortened: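 Primer extension turned Universal Agilent oligonucleotide arrays double-stranded. They were incubated with 200 nM protein in PBS (pH 7.5); the protein was a GST-fused Tbr T-box DNA-binding domain expressed in BL21 E. coli at 20 °C and purified on glutathione. Every ungapped 8-mer was scored from the scanned, quantified probe intensities, and the Universal PBM Analysis Suite gave each an enrichment E-score averaged over duplicate arrays.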
row,Sequence,PBM E-score of 8-mer
1,CCCTTGAA,-0.392 ± 0.075
2,ATCCACCG,-0.2934 ± 0.00052
3,ACCGCTAT,0.0197 ± 0.06
4,TAAGGAGA,-0.296 ± 0.025
5,ATTTGTGC,-0.118 ± 0.014
6,CCACCTGG,0.252 ± 0.0058
7,CGTGGTAA,0.0635 ± 0.013
8,ATGTTTCG,0.00583 ± 0.037
9,GCAATGCA,-0.0122 ± 0.027
10,AGAGCCTG,-0.0676 ± 0.041
11,ACTGGTTG,0.102 ± 0.0037
12,AGTCAGAC,-0.0902 ± 0.076
13,GAAAATGC,-0.231 ± 0.0041
14,CAGATACC,-0.254 ± 0.086
15,AGCCGATC,-0.156 ± 0.069
16,CCTATCAG,-0.0223 ± 0.0044
17,ATCAACGG,-0.182 ± 0.042
18,GCCAGCGC,0.125 ± 0.076
19,AACCCCTA,-0.151 ± 0.035
20,TCTAAGAA,-0.239 ± 0.028
21,ACAATTAC,0.0489 ± 0.039
22,AGACCGCG,0.0594 ± 0.031

row,Sequence,PBM E-score of 8-mer
1,ACTCGTAG,0.00758 ± 0.076
2,AGAGATAG,-0.137 ± 0.024
3,GCCGGGCA,-0.204 ± 0.13
4,ATACTTGA,-0.0949 ± 0.046
5,AAGGTACG,-0.0456 ± 0.094
6,ACTTTGGG,-0.151 ± 0.075
7,CAGACTGC,-0.0353 ± 0.073
8,GTGAATGA,0.109 ± 0.0043
9,ATTCCCGA,-0.158 ± 0.071
10,ACGTTTAC,0.0596 ± 0.021
11,CATACACA,-0.0494 ± 0.036
12,AATTAAAA,-0.207 ± 0.11
13,TGTTTTAA,-0.0151 ± 0.098
14,CGAATGGA,-0.149 ± 0.025
15,AATGAATG,0.0321 ± 0.038
16,CCTCGGTC,0.0608 ± 0.12
17,CATTAGAG,-0.0379 ± 0.085
18,CTTAGAAC,-0.112 ± 0.098
19,AGACTCAA,-0.22 ± 0.045
20,CTAAAACA,0.0999 ± 0.053
21,ATGTCGAA,-0.0919 ± 0.073
22,CATCCGGA,-0.319 ± 0.037

row,Sequence,PBM E-score of 8-mer
1,ACCCACCA,-0.195 ± 0.069
2,TACACTCA,-0.0251 ± 0.036
3,GGGGCGGA,-0.405 ± 0.031
4,AGTAGTCC,-0.278 ± 0.058
5,ACCACGAT,0.0473 ± 0.013
6,GCTCGTGA,0.237 ± 0.058
7,CTCTAGTA,-0.239 ± 0.0091
8,AATTCTTC,-0.162 ± 0.064
9,CTCTAACA,0.162 ± 0.0073
10,CATTCTGG,-0.157 ± 0.11
11,CTGAAGGA,-0.225 ± 0.0061
12,AAGTGGCG,0.3473 ± 0.0029
13,CGATATGC,-0.0897 ± 0.0075
14,CATTACAC,0.247 ± 0.007
15,GGTTCTAA,-0.136 ± 0.047
16,CCTCTTTC,-0.072 ± 0.095
17,CAGTTTGG,0.0673 ± 0.027
18,GCGTGAGC,0.203 ± 0.06
19,GTCCACCA,-0.19 ± 0.007
20,AAATGCTG,-0.134 ± 0.038
21,AGCGATGG,0.102 ± 0.0073
22,CTGGCCGC,-0.252 ± 0.018

row,Sequence,PBM E-score of 8-mer
1,CTCAGTAA,-0.147 ± 0.068
2,GAATAAGA,-0.0898 ± 0.037
3,CTTGGTGA,0.12 ± 0.032
4,CCTGAGTA,-0.144 ± 0.013
5,AATTAAGC,-0.186 ± 0.0037
6,AACTATGC,0.0396 ± 0.064
7,CTTTAACC,-0.195 ± 0.048
8,ACGTTGAG,0.069 ± 0.0054
9,AAGCCAAA,-0.189 ± 0.018
10,CCGGAAGG,-0.171 ± 0.089
11,TAGAATAA,-0.216 ± 0.027
12,CATAGCCC,-0.0326 ± 0.025
13,ATAAACTG,-0.0165 ± 0.079
14,AAATTATA,-0.13 ± 0.066
15,CATCTGGC,-0.073 ± 0.018
16,CATTTCGA,0.0104 ± 0.03
17,TCATTGAA,-0.0959 ± 0.0025
18,GAGCGGGA,0.0084 ± 0.033
19,CTGGAATC,-0.132 ± 0.092
20,CACAGGCC,-0.0903 ± 0.017
